Test results reported in publication PMC6919601, “Identification of Plasmodium dipeptidyl aminopeptidase allosteric inhibitors by high throughput screening” (PLoS ONE, 2019).
Several values for one entry are separate records, joined by “and”; a condition that tells them apart may be missing. Equal values may be shown once. Among all 110,000 compounds or so, about 230 (0.21%) showed an effect of 50% or more. Some of the results follow.

Biological target: DPAP1 (Plasmodium falciparum, UniProt Q8IIJ9)
Assay: primary screen, percent inhibition; read by cleavage of a fluorogenic dipeptide substrate; higher = more effect of the substance
Design: species or system P. falciparum D10 trophozoite lysates; single well
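Also: 30 min substrate incubation versus DMSO and 10 µM JCP410 controls.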

Chain of DPAP1 (Q8IIJ9 whole entry, looked up): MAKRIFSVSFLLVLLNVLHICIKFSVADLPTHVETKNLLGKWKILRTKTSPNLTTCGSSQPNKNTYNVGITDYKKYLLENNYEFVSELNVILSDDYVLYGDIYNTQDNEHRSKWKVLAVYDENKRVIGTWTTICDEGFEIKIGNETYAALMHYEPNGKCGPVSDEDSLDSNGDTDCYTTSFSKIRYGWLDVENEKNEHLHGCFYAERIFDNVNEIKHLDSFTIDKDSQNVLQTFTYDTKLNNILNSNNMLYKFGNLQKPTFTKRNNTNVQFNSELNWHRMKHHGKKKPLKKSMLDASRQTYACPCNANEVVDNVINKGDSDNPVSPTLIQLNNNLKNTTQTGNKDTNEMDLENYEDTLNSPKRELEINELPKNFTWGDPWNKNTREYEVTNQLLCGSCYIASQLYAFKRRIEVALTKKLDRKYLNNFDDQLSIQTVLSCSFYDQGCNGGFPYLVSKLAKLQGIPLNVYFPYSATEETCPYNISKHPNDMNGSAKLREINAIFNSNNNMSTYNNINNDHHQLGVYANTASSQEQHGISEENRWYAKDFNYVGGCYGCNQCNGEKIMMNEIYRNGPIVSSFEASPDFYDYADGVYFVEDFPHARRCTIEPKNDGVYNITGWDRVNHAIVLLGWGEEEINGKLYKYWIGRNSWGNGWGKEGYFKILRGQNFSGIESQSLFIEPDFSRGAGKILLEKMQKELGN

| SMILES | % Inhibition @ 10 uM |
| --- | --- |
| CCOc1ccc2nc(N3CCCC(C(=O)NCCCN4CCN(C)CC4)C3)sc2c1 (centres unmarked) | -1.58% |
| Cc1cc2oc(C(=O)NCC(c3ccco3)N3CCCC3)c(C)c2cc1C (centres unmarked) | 0.19% |
| COc1ccc(-c2nc3s/c(=C\c4cc(C)c(O)c(C)c4)c(=O)n3n2)cc1 | 2.25% |
| COc1ccc(CN(C)CCN(C)C)c(C)c1C | -4.95% |
| CC1=C(C)CC(C(=O)Nc2ccc(Cl)cc2Cl)C(C(=O)O)C1 (centres unmarked) | -1.28% |
| CC(NS(=O)(=O)c1cccc(Cl)c1)C(=O)Nc1ccc(Br)cc1F (centres unmarked) | -5.3% |
| O=C(COc1ccc(Cl)cc1Cl)N1CCCc2ccccc21 | -0.636% |
| CN(Cc1ccccc1)C(=O)c1ccccc1Br | -1.62% |
| Oc1c2c(nn1-c1ccccc1)CCC2 | 2.65% |
| C/N=C1/S/C(=C/c2ccc(O)c(OC)c2)C(=O)N1C1CCCCC1 | 19.8% |
| CC1CCCC(C)N1CCCNC(=O)Cn1ncc2c3ccccc3n(Cc3ccccc3)c2c1=O (centres unmarked) | -3.35% |
| CCCc1ccc(OCc2ccc(C(=O)N3N=C(C(F)F)CC3(O)C(F)F)o2)cc1 (centres unmarked) | -3.18% |
| CC(=O)Nc1ccccc1-c1nnc(S)nc1O | -0.0217% |
| COc1ccc(C(=O)N[C@@H](CSCc2ccccc2)C(=O)NCC#N)cc1 | 1.35% |
| COc1ccc(NC(=O)COc2ccc(S(=O)(=O)N3CCCC3)cc2)cc1Cl | -1.98% |
| O=C(Cn1cc(S(=O)(=O)Cc2ccccc2)c2ccccc21)NCc1ccccc1 | -1.6% |
| CCOCCCNC(=O)Cn1ncn2nc(-c3cccs3)cc2c1=O | 0.413% |
| Oc1c(C(Nc2ccc(Br)cn2)c2ccccc2)ccc2cccnc12 (centres unmarked) | -1.45% |
| O=C(c1ccc(COc2ccc3c(c2)CCC3)o1)N1N=C(C(F)F)CC1(O)C(F)F (centres unmarked) | 2.08% |
| CCOc1ccc(C2SCC(=O)Nc3c2c(C)nn3C2CCOC(C)(C)C2)cc1 (centres unmarked) | -2.21% |
| CCCc1cc(C(=O)Nc2c(C)nn(Cc3ccc(F)cc3)c2C)no1 | -3.77% |
| COc1ccc(CN2CCN(Cc3ccc(OC)cc3OC)CC2)cc1 | -4.6% |
| CC1=CC(C)(C)N(Cc2ccc([N+](=O)[O-])cc2)c2ccc(C)cc21 | 1.24% |
| COc1ccccc1NC(=O)C(C)Oc1ccc(C)cc1 (centres unmarked) | 3.67% |
| O=C(NCc1ccc2c(c1)OCO2)c1ccccc1C(=O)NCc1ccc2c(c1)OCO2 | -10.1% |
| CC1(C)CC(=O)C(C2C3=C(CC(C)(C)CC3=O)Oc3ccccc32)C(=O)C1 (centres unmarked) | -0.357% |

| SMILES | % Inhibition @ 10 uM |
| --- | --- |
| CCN(CC)S(=O)(=O)c1ccc(C(=O)N2CCN(C3=NS(=O)(=O)c4ccccc43)CC2)cc1 | -7.9% |
| O=C(CSc1nc2ccsc2c(=O)n1Cc1ccc2c(c1)OCO2)NCc1ccc(Cl)cc1 | -1.12% |
| COc1ccc(C(=O)Nc2nc(-c3nnn(-c4cccc(C)c4C)c3C)ns2)cc1 | -3.22% |
| CCN(CC)CCN1C(=O)C(O)=C(C(=O)c2cccs2)C1c1ccccc1F (centres unmarked) | -1.44% |
| CC(C)c1ccc2c(c1)c1c3n2CCNC3CCC1 (centres unmarked) | -4.84% |
| CC[C@H](NC(=O)[C@H](Cc1c[nH]c2ccccc12)NC(=O)c1ccc(-c2ccccc2Cl)cc1)C(=O)c1nc2ccccc2o1 | -3.48% |
| CC(C)(C)c1ccc(-c2cc3ncc(-c4ccccc4)c(N)n3n2)cc1 | 1.52% |
| Cn1cnc2c1c(=O)n(C/C=C/c1ccccc1)c(=O)n2C | 0.431% |
| COC(=O)C1=C(C)N(CCc2ccccc2)C(=O)/C1=C\c1ccc(C)cc1 | -7.18% |
| O=C1S/C(=C/c2ccc(F)cc2)C(=O)N1CN1CCCCC1 | 0.823% |
| CN(Cc1ccccc1)c1oc(COc2ccc(F)cc2)nc1C#N | 4.08% |
| Cc1cc(Cl)ccc1NC(=O)C(=O)NC(C)C | 6.17% |
| CCC(C)N1C(=O)S/C(=C/c2ccc(N3CCOCC3)cc2C)C1=O (centres unmarked) | 2.84% |
| CC1(C)CC(=O)/C(=C/c2ccccc2)C(C)(C)N1 | 2.95% |
| CCOC(=O)N1CCN(Cc2cccc(Cl)c2)CC1 | 4.8% |
| Cc1ccc(S(=O)(=O)N(C)c2ccc(C(=O)N3CCC(C(N)=O)CC3)cc2)cc1 | 2.48% |
| COc1ccc(-c2cc(CCCC(=O)NCCc3cc(OC)ccc3OC)no2)cc1 | -3.1% |
| O=C1NC(=S)S/C1=C\c1ccc(-c2ccccc2)cc1 | -0.582% |
| O=c1[nH]c(=O)n(Cc2ccccc2)c2nc[nH]c12 | 1.91% |
| COc1ccc(C2(NCCc3ccc(Cl)cc3)C(=O)c3ccccc3C2=O)cc1 | -4.76% |
| CCOc1ccc2oc(=O)cc(CN(CCCN3CCOCC3)Cc3ccco3)c2c1 | 0.00706% |
| Clc1cccc(-c2nnc3sc(-c4cc5ccccc5o4)nn23)c1 | -0.45% |
| COc1ccc(-c2cc(OC(=O)c3ccc(Cl)cc3)c3c(C)oc(C)c3c(=O)c2)cc1OC | -2.92% |
| COc1ccccc1CNC(=O)C1CCN(S(=O)(=O)c2cccs2)CC1 | -5.52% |
| COc1ccc(Br)cc1CNCc1sc(C(=O)O)cc1C | 6.65% |
| COc1ccc(CCC(=O)Nc2cc(Cl)cc(Cl)c2)cc1 | 14.8% |

| SMILES | % Inhibition @ 10 uM |
| --- | --- |
| CS(=O)(=O)N1CCCC(C(=O)NCCCN2CCc3ccccc3C2)C1 (centres unmarked) | 5.35% |
| CCOc1ccc2nc(NC(=O)c3cc4ccccc4o3)sc2c1 | -1.79% |
| CCOc1ccccc1C(=O)Nc1c(C(=O)N2CCN(c3ncccn3)CC2)oc2ccccc12 | 4.76% |
| CC(Nc1ccc(F)c(Cl)c1)C(=O)O (centres unmarked) | 4.26% and -0.351% |
| CC1=C(C(=O)Nc2ccc(C)cc2)C(c2ccccc2Br)NC(=O)N1 (centres unmarked) | -3.01% |
| COc1cccc(NC(=O)CCCOc2ccc(C(C)(C)C)cc2)c1 | -1.26% |
| CCSc1nc2sc3c(c2c(=O)n1Cc1ccccc1)CCC3 | -9.52% |
| CC(=O)Nc1c(N2CCCC2)cnn(-c2ccccc2)c1=O | 2.41% |
| COc1nc(-c2ccccc2)cc(-c2ccc(F)cc2)c1C#N | 1.52% |
| Cc1nc(NC(=O)C23CC4CC(CC(C4)C2)C3)sc1C(=O)N(C)C | -1.2% |
| Cc1sc(NC(=O)c2ccnn2C)c(C#N)c1-c1ccccc1 | -3.77% |
| Cc1ccc2nc(O)c3cc(C(=O)N(C)Cc4ccccc4)sc3c2c1 | -3.44% |
| Clc1ccc(Cc2nc(-c3ccncc3)no2)cc1 | -1.62% |
| O=C(c1ccccc1)c1cc2c(cc1Cl)OCCO2 | -4.97% |
| COc1cc(=O)n(C)c2c(OCC3OC(C)(C)OC3(C)C)cccc12 (centres unmarked) | -2.7% |
| CC1(C)CC2=Nc3ncnn3C(c3ccc(Br)cc3)C2=C(O)C1 (centres unmarked) | 1.73% |
| O=C(CN1C(=O)c2ccccc2C1=O)c1ccccc1 | 2.26% |
| Cc1cccc(NC(=O)CSc2nc(N)cc(N)n2)c1C | -5.66% |
| CCN(CC)CC#CC(C)(O)c1ccccc1 (centres unmarked) | -4.31% |
| O=C(Cn1c(=O)c2cccn2c2cccnc21)NCc1ccc2c(c1)OCO2 | 7.39% |
| Cc1cc(OCC(=O)Nc2ccc(CN3CCOCC3)cc2)ccc1Cl | -6.59% |
| COC(=O)c1cc(S(=O)(=O)N2CCC(C)CC2)c[nH]1 | -0.825% |
| C=C(C)CSc1nc(N)c2c3c(sc2n1)CCC3 | 4.37% |
| CC(C)CCNC(=O)C1c2ccccc2Oc2ccccc21 | -1.36% |
| Cc1cc(C)c(NC(=O)NC(=O)c2cccc(OC(F)(F)C(F)F)c2)c(C)n1 | -1.04% |
| Cc1cc(OCCCN2CCCCC2)ccc1Cl | -5.62% |

| SMILES | % Inhibition @ 10 uM |
| --- | --- |
| Cc1c(Cl)cccc1/N=C1/SC(CC(=O)Nc2ccc(C(=O)O)cc2)C(=O)N1C (centres unmarked) | 6.03% |
| CCOCCCNC(=O)C(C)Sc1nc2nc(C)cc(C)n2n1 (centres unmarked) | 2.79% |
| COc1cccc(OC)c1C(=O)Nc1ccccn1 | -3.04% |
| CC(C)(C)c1ccc(C(=O)NCC2CCCO2)cc1 (centres unmarked) | 4.38% |
| COc1cccc(NC(=O)CN(C2CCCCC2)S(=O)(=O)c2ccc(F)cc2)c1 | -3.68% |
| CCOC(=O)c1snc(-c2ccc(Cl)cc2)c1N | 5.54% |
| COc1cccc(Cn2c(Oc3cccc(OC)c3)nc3c2c(=O)n(C)c(=O)n3C)c1 | 5.17% |
| [O-][n+]1ccccc1C(O)CN1CCN(c2cccc(Cl)c2)CC1 (centres unmarked) | -5.84% |
| O=C(NCc1cccnc1)c1cccc(Br)c1 | 3.74% |
| CC(=O)c1c(C)oc2ccc(O)c(CN3CCOCC3)c12 | 1.23% |
| CCN(CC)c1ccc(NC(=O)c2cccc(C)c2)c(C)c1 | -9.31% |
| CCN(CC)C(=O)C(C)N(C#N)c1nc(NC(C)C)nc(NC(C)C)n1 (centres unmarked) | 4.55% |
| C(=C\c1ccccc1)/CN1CCN(C2CCN(CCc3ccccc3)CC2)CC1 | 97.7% |
| O=C(O)COCC(=O)Nc1cccnc1 | 0.776% |
| O=S(=O)(N1CCCCC1)N1CCCN(S(=O)(=O)N2CCCCC2)CC1 | 4.94% |
| O=C(O)c1ccc(-n2cc(CNCCc3ccc(Cl)cc3)c3ccccc32)s1 | 4.79% |
| Cc1ccc(CN2CCN(C(=S)NCC(=O)NCc3cccs3)CC23CCCCC3)cc1 | -4.97% |
| COc1ccc(OC)c(C2=NOC(C(=O)NCCc3ccc(OC)c(OC)c3)C2)c1 (centres unmarked) | 2.85% |
| COc1ccc(CCN2C(=S)NC3CC2(C)Oc2ccccc23)cc1OC (centres unmarked) | -4.19% |
| COC(=O)c1cc(C)sc1N | 3.36% |
| Cc1ccc(CN2CCC(O)(c3ccc(Br)cc3)CC2)s1 | -1.21% |
| Cc1ccc(S(=O)(=O)/C(C#N)=C/c2sccc2C)cc1 | 6.22% |
| Cc1ccc(-c2csc3ncn(CC(=O)Nc4cccc5ccccc45)c(=O)c23)cc1 | -2.05% |
